{
  "source": "PubChem BioAssay AID485344",
  "about": "(National Center for Advancing Translational Sciences (NCATS), 2010)",
  "note": "The whole screen tested about 340,000 compounds, of which about 6,900 (2%) were called active. Rule as the data show it: active = inhibition above about 30%; inactive = below that, where a call was filed. The entries are a selection whose mix differs from that of the whole data set. Where no call is shown, the source filed none.",
  "data": [
    {"target": "D(2) dopamine receptor (Homo sapiens) (UniProt P14416)", "sequence (P14416 whole entry, looked up)": "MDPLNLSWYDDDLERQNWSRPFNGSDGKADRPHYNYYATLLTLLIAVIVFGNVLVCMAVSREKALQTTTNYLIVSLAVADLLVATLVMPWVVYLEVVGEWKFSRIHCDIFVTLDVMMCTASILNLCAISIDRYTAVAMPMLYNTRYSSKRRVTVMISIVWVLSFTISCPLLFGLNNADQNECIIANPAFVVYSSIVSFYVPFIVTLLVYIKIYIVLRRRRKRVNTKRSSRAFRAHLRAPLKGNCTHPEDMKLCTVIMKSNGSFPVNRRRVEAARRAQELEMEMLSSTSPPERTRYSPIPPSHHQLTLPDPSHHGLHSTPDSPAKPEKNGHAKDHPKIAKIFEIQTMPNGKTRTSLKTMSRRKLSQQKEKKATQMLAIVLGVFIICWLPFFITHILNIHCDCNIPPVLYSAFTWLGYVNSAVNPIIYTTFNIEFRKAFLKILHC", "test": "HTS Assay for Allosteric Antagonists of the Human D2 Dopamine Receptor: Primary Screen for Antagonists; also: 0% is about no effect", "settings": "HEK293 TREx D2 cells, calcium flux, dopamine EC80; at 10 µM; stronger effect = higher value", "outline": "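Calcium mobilization kinetics were recorded at 1 s intervals in tetracycline-induced HEK293 T-REx D2 cells, first for 180 s after compound addition and then 180 s after EC80 dopamine.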", "values": [
      {"smiles": "CCCCN(CC)CCCNC(=O)c1cn(CC)c2ccc(S(=O)(=O)N3CCc4ccccc4C3)cc2c1=O", "inhibition": "8.87%"},
      {"smiles": "Cc1ccc(NS(=O)(=O)c2ccc3nc(-c4ccccc4)[nH]c3c2)c(Br)c1", "inhibition": "-6.59%"},
      {"smiles": "Cc1ccc(Nc2nc3ccc(C(=O)c4ccccc4)cc3n3c(C)nnc23)c(C)c1", "inhibition": "1.95%"},
      {"smiles": "COc1ccc(-c2noc(CC(=O)Nc3cc(OC)ccc3OC)n2)cc1", "inhibition": "-12.7%"},
      {"smiles": "Cc1sc2ncn(CC(=O)N(C)c3ccc(C(C)C)cc3)c(=O)c2c1S(=O)(=O)N1CCC(C)CC1", "inhibition": "-4.63%"},
      {"smiles": "CC1CCC(NC(=O)C2(C)Cc3ccccc3C(=O)N2Cc2ccc(Cl)cc2)CC1", "note": "(stereo not drawn)", "inhibition": "4.69%"},
      {"smiles": "CCOC(=O)c1ccccc1NC(=O)c1cc2ccc3cccnc3c2[nH]1", "inhibition": "10.9%"},
      {"smiles": "CCCOC(=O)CSc1nnc(-c2ccccc2)o1", "inhibition": "10.5%"},
      {"smiles": "Cc1oc2ncnc(N3CCOCC3)c2c1C(=O)NCCc1ccccc1", "inhibition": "-4.95%"},
      {"smiles": "CCn1c(C(=O)Nc2ccc(C)cc2C)cc2sc(Cl)cc21", "inhibition": "-1.83%"},
      {"smiles": "CC(C)NC(=O)c1ccc2c(c1)nc1n2CCCCC1", "inhibition": "12.2%"},
      {"smiles": "CCOC(=O)COc1ccc(C)cc1C(=O)c1ccn2nc(-c3ccc(Cl)cc3)cc2n1", "inhibition": "4.43%"},
      {"smiles": "Cc1ccccc1NC(=S)NC1CCN(Cc2ccccc2)CC1", "inhibition": "active: 78.4%"},
      {"smiles": "O=C(c1cc(-c2ccc(F)cc2)on1)N1CCN(c2ccc(F)cc2)CC1", "inhibition": "6.89%"},
      {"smiles": "CC(=O)Nc1cc[n+](C(C)C(=O)c2ccc(Br)cc2)cc1", "note": "(stereo not drawn)", "inhibition": "active: 53.9%"},
      {"smiles": "CCCCNS(=O)(=O)c1ccc2nc(-c3cccnc3)cc(C(=O)NC(C)C)c2c1", "inhibition": "-4.93%"},
      {"smiles": "O=C(CN1C(=O)c2cccc3cccc1c23)Nc1ccccc1Br", "inhibition": "-15.7%"},
      {"smiles": "Cn1nc(C(=O)N2CCN(c3ccccc3F)CC2)c2c1-c1ccccc1S(=O)(=O)C2", "inhibition": "-15.6%"},
      {"smiles": "CCCC1N=C2c3ccccc3N=C(SCC(=O)NCCc3ccc(Cl)cc3)N2C1=O", "note": "(stereo not drawn)", "inhibition": "8.71%"},
      {"smiles": "Cc1cccc(N2CCN(Cc3cc(=O)oc4cc(C)ccc34)CC2C)c1", "note": "(stereo not drawn)", "inhibition": "-14.5%"},
      {"smiles": "Cc1ccccc1N1CC(c2nnc(NC(=O)c3ccco3)s2)CC1=O", "note": "(stereo not drawn)", "inhibition": "18%"},
      {"smiles": "CC(C)(C)C1CCc2onc(C(=O)Nc3sc4c(c3C#N)CCCC4)c2C1", "note": "(stereo not drawn)", "inhibition": "7.46%"},
      {"smiles": "CCOc1ccc(OCC(=O)NCCS(=O)(=O)N2CCN(c3cccc(Cl)c3)CC2)cc1", "inhibition": "-12.7%"},
      {"smiles": "Cc1ccc(Cn2c(=O)c3cccnc3n(CC(=O)Nc3cc(Cl)ccc3C)c2=O)cc1", "inhibition": "4.24%"},
      {"smiles": "CSc1ccc(CCNC(=O)c2cc3cc4cc(C)ccc4nc3s2)cc1", "inhibition": "14.4%"},
      {"smiles": "CCN1C=C(Cc2cccs2)C2=C(C1)C(c1cccs1)C(C#N)=C(N)O2", "note": "(stereo not drawn)", "inhibition": "active: 80.6%"},
      {"smiles": "CCc1nn(CC(=O)NCCCc2ccccc2)c(=O)c2cc3ccccc3n12", "inhibition": "0.456%"},
      {"smiles": "Cc1c(Cl)cccc1NC(=O)Cn1c(=O)n(Cc2nc(-c3ccccc3)no2)c(=O)c2cc3c(cc21)OCO3", "inhibition": "5.07%"},
      {"smiles": "Cc1c(Cl)cccc1NC(=O)C1CCN(c2nc3ccccc3[nH]2)CC1", "inhibition": "13.9%"},
      {"smiles": "Cc1ccc(Nc2cc(C)c(C#N)c3nc4ccccc4n23)c(C)c1", "inhibition": "4.46%"},
      {"smiles": "COC(=O)c1sccc1S(=O)(=O)N(CC(=O)Nc1ccccc1)c1ccccc1", "inhibition": "25%"},
      {"smiles": "CCc1ccc(CNC(=O)c2cnc3c(C)cccn3c2=O)cc1", "inhibition": "7.49%"},
      {"smiles": "CCCC(=O)Nc1cccc(-c2cn3c(C)csc3n2)c1", "inhibition": "-10.2%"},
      {"smiles": "COc1ccc(-c2oc3cccnc3c2/C=C/c2ccc(OC)c(OC)c2)cc1", "inhibition": "active: 30%"},
      {"smiles": "COc1cc(C2Nc3ccccc3-c3nnc(SCc4ccc(C)cc4)nc3O2)cc(OC)c1O", "note": "(stereo not drawn)", "inhibition": "21.6%"},
      {"smiles": "CCCCN(C)S(=O)(=O)c1ccc(C(=O)Nc2ccc(-c3nc4ccc(C)cc4s3)cc2)cc1", "inhibition": "9.24%"},
      {"smiles": "N#CCSc1nc2ccccc2c2nc3ccccc3n12", "inhibition": "active: 32.5%"},
      {"smiles": "CC(C)C(=O)OCc1cc(=O)n2nc(C3CC3)sc2n1", "inhibition": "0.0085%"},
      {"smiles": "Cc1cc(Cl)ccc1NC(=O)CCCn1nc(C)c2c(C)n(-c3ccccc3)nc2c1=O", "inhibition": "-9.2%"},
      {"smiles": "Cc1cc(C)cc(NC(=O)CSc2nc3sc4c(c3c(=O)[nH]2)CCCC4)c1", "inhibition": "12.4%"},
      {"smiles": "CCC1CN(C(=O)Nc2cc(Cl)c(OC)cc2OC)c2ccccc2O1", "note": "(stereo not drawn)", "inhibition": "5.06%"},
      {"smiles": "CCc1ccc(C2c3c(oc4cc(C)c(C)cc4c3=O)C(=O)N2c2nc(C)c(C(=O)OC)s2)cc1", "note": "(stereo not drawn)", "inhibition": "-24.2%"},
      {"smiles": "COc1ccc(-c2noc(CC(=O)Nc3ccc(C)c(F)c3)n2)cc1", "inhibition": "-10.8%"},
      {"smiles": "Cc1ccc(S(=O)(=O)N(C)C)cc1NC(=O)CSc1nc2ccccc2[nH]1", "inhibition": "active: 30.8%"},
      {"smiles": "Cc1cc(C(=O)NCc2ccccc2Cl)c2c(C)nn(-c3cccc(F)c3)c2n1", "inhibition": "-1.72%"},
      {"smiles": "Cc1ccc2oc(=O)n(CCNC(=O)Nc3ccc(Cl)cc3)c2c1", "inhibition": "-1.3%"},
      {"smiles": "O=C(NCC(c1ccco1)S(=O)(=O)c1cccs1)c1ccc(Cl)cc1", "note": "(stereo not drawn)", "inhibition": "-17.5%"},
      {"smiles": "CCCN(C(=O)Nc1cn(CC(C)C)c(=O)c2ccccc12)c1ccc(F)cc1", "inhibition": "-3.63%"}
    ]}
  ]
}
